Reference: article PMC12136788
The list shows a part of the results.

T1: UNK ZnF1-3 (human, UniProt Q9C0B0 31-174)
T1 sequence: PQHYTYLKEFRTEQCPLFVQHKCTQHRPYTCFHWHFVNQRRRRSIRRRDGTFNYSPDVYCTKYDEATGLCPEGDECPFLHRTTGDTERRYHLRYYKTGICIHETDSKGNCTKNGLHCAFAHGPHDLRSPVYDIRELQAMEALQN

B1: chr9:96246283:96246284:-_ENSMUSG00000032412_ENSMUST00000034983|mus_mus|FALSE|FALSE (ssRNA)
RNA: GGGAGUUCUACAGUCCGACGAUCCUGGAGCAUGGCCCACAUUGUGAAUGUGAAGAGUGCAGCCAAGAACCCAUAAAAAACUAGGUAGAAGAGCAAGAUCAGACCCCAGCUCUUGGAGGUGCGCCCCAGAAACUCUCCGCUGCUCAACAGAGGAUUGAGCAUCA
B2: chr10:5892124:5892125:-_ENSMUSG00000061759_ENSMUST00000095893|mus_mus|FALSE|FALSE (ssRNA)
RNA: GGGAGUUCUACAGUCCGACGAUCUUCAUUAAAACUACUUGAAAGUUUUGCAUUUAACUUAGAAUAGUGACAGAAGUAUAACUAGCUUAAACCCAAACCAAUGCAGCGGGGCAAACCAUUCCAAGGAAGCCUCGUCUACUGUACCAACAGAGGAUUGAGCAUCA
B3: 71851958_71852819_2353_CDS_ENSG00000119139_ENST00000377245|human|control|control (ssRNA)
RNA: GGGAGUUCUACAGUCCGACGAUCUAAGACCACAGGUCUCUUGAAACCAGCUUCUCGCAGCAAAACCCUCUCAUAAGCUGGGAACUUGGUGCUGACAGACACAACAGCUGUGAGGUCUUCCCGACUUUUCCUCAGGUUCUUCUUCAACAGAGGAUUGAGCAUCA
B4: chr2:155479361:155479362:-_ENSMUSG00000038324_ENSMUST00000041059|mus_mus|motif|central (ssRNA)
RNA: GGGAGUUCUACAGUCCGACGAUCCCACUCCUCCAGUUCUUGAAGGAAGCUGGCUGUGCCCGUUGACUCUGACACUUUCCGGGUUGCCAGUUUGCAAAGCCGUUCCACAAAGCCAGGGAUGCUGAGAAGAGCAGCUUGGUUGAUCAACAGAGGAUUGAGCAUCA
B5: chr7:155493584:155493585:+_ENSG00000184863_ENST00000401878|hu_hu|FALSE|FALSE (ssRNA)
RNA: GGGAGUUCUACAGUCCGACGAUCUGAAAGCUCCAAAGUUUCUGGAAUGUUCCUUCUCUCUCUAGUUACAUCUGAGAGCCUAAUAAUUGUUCCUUCUUUCCUUUCAGUUUUGAAACGUAAUCGUCCAGAUUCUUCAUCAUCUUCCAACAGAGGAUUGAGCAUCA
B6: chr11:100452861:100452862:-_ENSMUSG00000014195_ENSMUST00000014339|mus_hu|FALSE|FALSE (ssRNA)
RNA: GGGAGUUCUACAGUCCGACGAUCCCAUUCGUAGAAUGUCACUAGCCACAGACUGUGCUUCUGGAUAACGACCCAGCAUUGCUAAACAUUCUGCCUUGAGGAUUUUGAAGCGAUGGCAGGCAGGGGCAAAUUCUAGGGCACGGUCAACAGAGGAUUGAGCAUCA
B7: chr1:39494564:39494565:+_ENSG00000168653_ENST00000372967|hu_hu|hu_hu_hu_mus_True|58_58 (ssRNA)
RNA: GGGAGUUCUACAGUCCGACGAUCAUGCAUUCGCCUCAUCGUUUUGUACCGAAGCAAGCACUCUUCGAAGUCAUCGAAUUCUAUCUUGCACUCCUUUUUCGCCCGGGUCCCACCGAUCCCGUGUGCACACUCUAUCCACUCUUUCAACAGAGGAUUGAGCAUCA
B8: chr7:141445308:141445309:+_ENSG00000106028_ENST00000265304|hu_hu|hu_hu_hu_mus_False|68_88 (ssRNA)
RNA: GGGAGUUCUACAGUCCGACGAUCUAUGAUUGUUGUUGCUUGCCGCCUCACAUUAUUUUUAUCCAUGUAUUCACCAUAGUCCACUUUCCCUUCCACAAAUAUACGAGCCCCCUUUUUCACAUACUGAUAUGCCACAUCUCUGAGCAACAGAGGAUUGAGCAUCA
B9: 31086706_31086826_1316_CDS_ENSMUSG00000029168_ENSMUST00000114729|mouse|control|control (ssRNA)
RNA: GGGAGUUCUACAGUCCGACGAUCCAUGAGGUAGGUGGAAGUGUUGGUGUCCAGUCUCAGAGGAGGCACCGUGACAUAGGCGGCUGCAUGCGACCAGUCCUGAUGGUAGUAGUGCAAGCCCGUGAGCGUGGCGUGUGCGUUGGUCAACAGAGGAUUGAGCAUCA
B10: chr16:29649037:29649038:+_ENSMUSG00000038084_ENSMUST00000160597|mus_mus|motif|central (ssRNA)
RNA: GGGAGUUCUACAGUCCGACGAUCCACAGUCUACUUCUCCUGGUGAAGAGCUUCAAUGAAAGCAUCAAGCUUUUCUUGAAUUUCUCGGACUUUCUUGAGAUCUUCUGCCAGCUGAACUCGUUUGCCAGUGAGCAAUUUAACCUUCAACAGAGGAUUGAGCAUCA
B11: chr6:38652254:38652255:-_ENSG00000124767_ENST00000373365|hu_hu|hu_hu_hu_mus_False|68_98 (ssRNA)
RNA: GGGAGUUCUACAGUCCGACGAUCCGAGAACUUCAUAAUGGGAAAAUCAAGCUUCUGCAGGAGGGUCAUUCCAAGAACCCUCGUAUAAAAAUCCAGGGACUUCUUAGGAUCCUUAAUUCUUAGCAUCGUUUGCUGCAGUAGAAACAACAGAGGAUUGAGCAUCA
B12: chrX:71549762:71549763:+_ENSMUSG00000019087_ENSMUST00000019231|mus_mus|mus_mus_mus_hu_False|28_108 (ssRNA)
RNA: GGGAGUUCUACAGUCCGACGAUCAAAGUGUACCACUUCUUAUUGUUAGCACAACAUCACCAGAAAACGAUAACGACAGCCAAGCAGGACAGACAGUUAAGUAGUACUUCCACACCUCCAAACUCAGGGAGCCCUAUAACCUUACAACAGAGGAUUGAGCAUCA
B13: chr1:93451714:93451715:+_ENSMUSG00000026311_ENSMUST00000027538|mus_hu|FALSE|FALSE (ssRNA)
RNA: GGGAGUUCUACAGUCCGACGAUCCAACCUCAGCCCCUACAUGUACAUACCCCAUGGCCCGUUACAUUAAUAUGCAACUGAAAAUCCAGAACAGAGAACUUGGGAAAAACAAUAAUAACUUUAGUAUAAGCCUCUCAGCUGACACAACAGAGGAUUGAGCAUCA
B14: chr2:150438701:150438702:-_ENSG00000168288_ENST00000303319|hu_mus|motif|central (ssRNA)
RNA: GGGAGUUCUACAGUCCGACGAUCAUCAGAACCUGAAGAUCCUGCAGUUGAAAAGGCUCUUGGAUUGAUGACUCUUUUCACGGAAGAACAAAAUCCUGGGAGAUAGGAAACCAGUCUGGCUCUGUUACAGAGCACAUGGGCCAUCAACAGAGGAUUGAGCAUCA
B15: chr6:142724167:142724168:+_ENSMUSG00000030282_ENSMUST00000032419|mus_mus|motif|central (ssRNA)
RNA: GGGAGUUCUACAGUCCGACGAUCCCAGACUCAUUGCUUUACAAUAAAUAAAAUCCCAGCAUCAUUAACACCACACACACGGGUUUGACAGGGCACAAUACAGAGUGGAUUGUUUAUGAGGUCGGAGCAAGACUAGGUCAAUCCCAACAGAGGAUUGAGCAUCA
B16: chr1:220379288:220379289:-_ENSG00000118873_ENST00000358951|hu_hu|motif|central (ssRNA)
RNA: GGGAGUUCUACAGUCCGACGAUCUGAUGCUGCAGCUUUUGCUACCUGAUUUCGACAAGCACGAAGAGAUUGAAAAAGGCGGAAUCCAUCAAUAGUCACAAUGGCAGCUGGAUAUAAGAUACUCAACUCUUCAUUCUGCUCAGUCAACAGAGGAUUGAGCAUCA
B17: chr3:10015032:10015033:+_ENSMUSG00000027533_ENSMUST00000029046|mus_mus|mus_mus_mus_hu_True|1_78 (ssRNA)
RNA: GGGAGUUCUACAGUCCGACGAUCGUUUUUACCAUCACAAGUGAUGAUACAAUCUGGCUUGGCCAUGGCGCCCAUUUUUCGCAAAGCUAUUCCCACUCCUAGCUCCUUCAUGUAUUCAUCAAAGCCUUUGCUGUCCAUCAGGCGCAACAGAGGAUUGAGCAUCA
B18: chr6:114281168:114281169:-_ENSG00000196591_ENST00000368632|hu_hu|hu_hu_hu_mus_True|88_108 (ssRNA)
RNA: GGGAGUUCUACAGUCCGACGAUCUUCCAUUUUUCUGUAUAAACCAUAAUUUAACAGCAAGUUAUGAGUCAUCCGGAUUCUAUGAGGCUUCAUGGGAUGACCCUGGCCAUAAUAAUAAUUGCCAAUAUCACCAUCAUAGUAGUACAACAGAGGAUUGAGCAUCA
B19: chr8:98289279:98289280:-_ENSG00000180543_ENST00000322128|hu_mus|FALSE|FALSE (ssRNA)
RNA: GGGAGUUCUACAGUCCGACGAUCCUCCAGUCUGUUCAAAUAGCUCAAUACCUCCUUAUCUUUGGUAUUCAGAAAAGCUGACAGCUGGGGAUGGUUCUGAAAAGCUUGCCCCCAGAAGCCCGGAAUGCUCUGGAUGAGGAGGUUCAACAGAGGAUUGAGCAUCA
B20: chr7:141450121:141450122:+_ENSG00000106028_ENST00000265304|hu_mus|hu_hu_hu_mus_True|28_108 (ssRNA)
RNA: GGGAGUUCUACAGUCCGACGAUCUCAUCCUUUCUACGCCUUUUCUUUUGUCUGGUCACUCAGAAAUAUAAUGUUAUCAGCUAUGAUUGUUGUUGCUUGCCGCCUCACAUUAUUUUUAUCCAUGUACUCGCCAUAGUCCACUUUCAACAGAGGAUUGAGCAUCA
B21: 87826391_87826511_3391_3pUTR_ENSG00000008277_ENST00000398209|human|control|control (ssRNA)
RNA: GGGAGUUCUACAGUCCGACGAUCUGAUUGUGACGGAAUUUUUAGGCAUUUGGCAAAAUACACUUGUGUGUAACAGCUGCAUUUUUUUAAAAUUUUAAAAAUGUUACAUAUAUACAAUUGUCCUUGUAUGCUAAUAUAAAUAUGCAACAGAGGAUUGAGCAUCA
B22: 9430138_9430258_10655_3pUTR_ENSMUSG00000040209_ENSMUST00000041124|mouse|control|control (ssRNA)
RNA: GGGAGUUCUACAGUCCGACGAUCCAUCUGCUCAGACAGAGAACGGCUUUCUCUUGCAGGGAGGGUAGCCACUCACUGAGCAGAAUGAGUGUCUAGAGGGAAGCAUCCAUGUACUGGGGUGUUGACUUCAGAGCAAGCAUUCAGCAACAGAGGAUUGAGCAUCA

What follows are binders tested against T1, UNK ZnF1-3 (assay: nsRBNS (natural sequence RNA bind-n-seq); RBNS binding buffer (assumed for nsRBNS): 25 mM Tris pH 7.5, 150 mM KCl, 3 mM MgCl2, 0.01% Triton X-100, 500 ug/ml BSA, 20 U/ml SUPERase-In, 4 C; UNK is unkempt and MSI1 is Musashi-1; names of the RNAs are library labels; protein concentration not given here; high values mean tight binding).
B1 gave a binding signal of 1.97 enrichment R. With B2 the binding signal was 0.789 enrichment R. B3 gave a binding signal of 0.873 enrichment R. B4 showed a binding signal of 0.82 enrichment R. B5 was tested, and the binding signal was 0.627 enrichment R. B6 was tested, and the binding signal was 0.999 enrichment R. With B7 the binding signal was 0.603 enrichment R. B8 gave a binding signal of 0.773 enrichment R. Work on B9 yielded a binding signal of 1.31 enrichment R. In the case of B10, the binding signal is reported as 0.708 enrichment R. B11 was tested, and the binding signal was 0.858 enrichment R. In the case of B12, the binding signal is reported as 1.47 enrichment R. Binder B13 has a binding signal of 2.07 enrichment R. Binder B14 has a binding signal of 1.12 enrichment R. In the case of B15, the binding signal is reported as 1.8 enrichment R. In the case of B16, the binding signal is reported as 1.25 enrichment R. For B17, the binding signal was 0.676 enrichment R. Work on B18 yielded a binding signal of 0.998 enrichment R. In the case of B19, the binding signal is reported as 0.401 enrichment R. Binder B20 has a binding signal of 0.42 enrichment R. For B21, the binding signal was 2.3 enrichment R. B22 gave a binding signal of 1.06 enrichment R.
